# Measured values published in the supplement of paper PMC9135407.
# Several values for one entry are separate records, joined by “and”; a condition that tells them apart may be missing. Identical values can stand only once. Counter-ions that a name gives are not always drawn. About 620 (11%) of roughly 5,800 compounds showed activity.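 Rule for the calls: active = score above a cut-off or among the top three wells of a plate; in these data no inactive exceeds 0.85.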 The entries are a selection whose mix differs from that of the whole data set.
# Tested on: primary human hepatic stellate cells (donor 1)
# Experiment: scaled lipid accumulation score (0 = DMSO-like, 1 = nortriptyline-like); higher = stronger HSC inactivation (lipid re-accumulation), active = hit call of the paper
# Conditions: 48 h
# [1] = library stock concentration: 10 mM
# [2] = library stock concentration: 3.33 mM
# [3] = library stock concentration: 1 mM
# [4] = library stock concentration: 80 uM
# [5] = library stock concentration: 400 uM
# [6] = library stock concentration: 2 mM
# [7] = library stock concentration: 5.3 mM
# [8] = library stock concentration: 4.4 mM
# [9] = library stock concentration: 13.5 mM
# [10] = library stock concentration: 2.3 mM
smiles,measurement,setting,value
CC(=O)N[C@@H](Cc1c[nH]c2ccccc12)C(=O)OCc1cc(C(F)(F)F)cc(C(F)(F)F)c1,scaled lipid accumulation score,[1],inactive: ≤ 0
OC[C@H]1NC[C@H](O)[C@@H](O)[C@@H]1O [1-Deoxynojirimycin hydrochloride],scaled lipid accumulation score,[1],inactive: ≤ -0.07
CCN(CC)CCOC(=O)c1ccc(N)cc1Cl [Chloroprocaine HCl],scaled lipid accumulation score,[2],inactive: ≤ 0
same,scaled lipid accumulation score,[1],inactive: ≤ -0.001
CN[C@@H]1[C@@H](O[C@H]2O[C@H](CO)[C@@H](N)[C@H](O)[C@H]2O)OC2C[C@@H](N)[C@@H](O[C@H]3[C@H](O)[C@@H](O)[C@H](N)C[C@@H]3N)OC2[C@@H]1O (some centres undefined) [Apramycin],scaled lipid accumulation score,,inactive: ≤ 0
same,scaled lipid accumulation score,[1],inactive: 0.006
CC12CCC(CC1=O)C2(C)C (centres undefined) [Camphor (1r)],scaled lipid accumulation score,library stock concentration: 13.1 mM,inactive: ≤ -0.001
C[C@@H]1NC(=O)[C@@H](N)CNC(=O)[C@H](C2CCNC(=N)N2)NC(=O)/C(=C/NC(N)=O)NC(=O)[C@H](CNC(=O)CC(N)CCCN)NC1=O.N=C1NCC[C@H]([C@@H]2NC(=O)/C(=C/NC(N)=O)NC(=O)[C@H](CNC(=O)C[C@@H](N)CCCN)NC(=O)[C@H](CO)NC(=O)[C@@H](N)CNC2=O)N1 [Capreomycin sulfate],scaled lipid accumulation score,library stock concentration: 2.6 mM,inactive: ≤ -0.001
same,scaled lipid accumulation score,[1],inactive: ≤ 0
O=C(O)CCC/C=C\C[C@@H]1[C@@H](/C=C/[C@@H](O)CCc2cccc(C(F)(F)F)c2)[C@H](O)C[C@@H]1O [17-trifluoromethylphenyl trinor Prostaglandin F2.alpha.],scaled lipid accumulation score,[3],inactive: ≤ 0
CC1(C)O[C@H]2CC(=O)OC[C@]23[C@H]2CC[C@@]4(C)[C@H](c5ccoc5)OC(=O)[C@H]5O[C@]54[C@]2(C)C(=O)C[C@@H]13 [Limonin],scaled lipid accumulation score,[2],inactive: ≤ 0
same,scaled lipid accumulation score,[1],inactive: 0.008
Cc1c(-c2ccccc2)oc2c(C(=O)OCCN3CCCCC3)cccc2c1=O [Flavoxate HCl],scaled lipid accumulation score,[2],inactive: ≤ 0
same,scaled lipid accumulation score,[1],inactive: ≤ -0.001
Cc1c(-c2ccccc2)oc2c(C(=O)OCCN3CCCCC3)cccc2c1=O [Flavoxate hydrochloride],scaled lipid accumulation score,,inactive: ≤ 0
CCCCCC(O)/C=C/C=O (centres undefined) [4-hydroxy Nonenal],scaled lipid accumulation score,[3],inactive: ≤ 0
CN(N=O)C(=O)N[C@@H]1[C@@H](O)[C@H](O)[C@@H](CO)O[C@@H]1O [Streptozosin],scaled lipid accumulation score,library stock concentration: 7.5 mM,inactive: ≤ 0
same,scaled lipid accumulation score,[1],inactive: 0.029
Cc1ccc(-c2nn(C(C)(C)C)c3ncnc(N)c23)cc1,scaled lipid accumulation score,[4],inactive: 0.022
same,scaled lipid accumulation score,[5],inactive: ≤ 0
same,scaled lipid accumulation score,[6],inactive: ≤ 0
same,scaled lipid accumulation score,[2],inactive: 0.002
same,scaled lipid accumulation score,[1],inactive: 0.21 and inactive: ≤ 0
NCCCC(=O)O [Gamma-aminobutyric acid],scaled lipid accumulation score,[1],inactive: ≤ 0
CCCCCCOC(=O)NC(=N)c1ccc(NCc2nc3cc(C(=O)N(CCC(=O)OCC)c4ccccn4)ccc3n2C)cc1 [Dabigatran Etexilate],scaled lipid accumulation score,[2],inactive: 0.081
same,scaled lipid accumulation score,[1],inactive: 0.218
COc1ccc(O)cc1,scaled lipid accumulation score,[1],inactive: ≤ 0
COc1ccc(O)cc1 [Mequinol],scaled lipid accumulation score,[2],inactive: ≤ 0
same,scaled lipid accumulation score,[1],inactive: ≤ -0.001
CC(C)C[C@@H](C(=O)N[C@H](C(=O)OC1CCCC1)c1ccccc1)[C@H](O)C(=O)NO,scaled lipid accumulation score,[1],inactive: 0.007
CC(=O)NC(Cc1ccccc1)C(=O)O (centres undefined),scaled lipid accumulation score,[1],inactive: 0.009
CCCCCCCCCCCCCCCCCCCCCCO [Docosanol],scaled lipid accumulation score,library stock concentration: 6.1 mM,inactive: ≤ 0
CN1CCN(C2Cc3ccccc3Sc3ccc(Cl)cc32)CC1 (centres undefined),scaled lipid accumulation score,[1],inactive: 0.378
NS(=O)(=O)c1cc2c(cc1Cl)NC(C(Cl)Cl)NS2(=O)=O (centres undefined) [Trichlormethiazide],scaled lipid accumulation score,,inactive: ≤ 0
same,scaled lipid accumulation score,[2],inactive: 0.024
same,scaled lipid accumulation score,[7],inactive: ≤ 0
same,scaled lipid accumulation score,[1],inactive: ≤ 0
NS(=O)(=O)c1cc2c(cc1Cl)NC(C(Cl)Cl)NS2(=O)=O (centres undefined) [Trichloromethiazide],scaled lipid accumulation score,[7],inactive: ≤ 0
CN1C(=O)C(c2c[nH]c3ccccc23)=C(c2c[nH]c3ccccc23)C1=O [Bisindolylmaleimide V],scaled lipid accumulation score,[3],inactive: ≤ 0
same,scaled lipid accumulation score,[2],inactive: ≤ 0
CN[C@@H]1[C@H](O)[C@H](NC)[C@H]2O[C@@]3(O)C(=O)C[C@@H](C)O[C@H]3O[C@@H]2[C@H]1O [Spectinomycin dihydrochloride],scaled lipid accumulation score,,inactive: ≤ 0
CN[C@@H]1[C@H](O)[C@H](NC)[C@H]2O[C@@]3(O)C(=O)C[C@@H](C)O[C@H]3O[C@@H]2[C@H]1O [Spectinomycin hydrochloride],scaled lipid accumulation score,library stock concentration: 4.9 mM,inactive: ≤ 0
same,scaled lipid accumulation score,[1],inactive: ≤ 0
CN[C@@H]1[C@H](O)[C@H](NC)[C@H]2O[C@@]3(O)C(=O)C[C@@H](C)O[C@H]3O[C@@H]2[C@H]1O [Spectinomycin HCl],scaled lipid accumulation score,[2],inactive: ≤ 0
same,scaled lipid accumulation score,[1],inactive: ≤ 0
CN[C@@H]1[C@H](O)[C@H](NC)[C@H]2O[C@@]3(O)C(=O)C[C@@H](C)O[C@H]3O[C@@H]2[C@H]1O,scaled lipid accumulation score,[1],inactive: ≤ 0
CN[C@@H]1[C@H](O)[C@H](NC)[C@H]2O[C@@]3(O)C(=O)C[C@@H](C)O[C@H]3O[C@@H]2[C@H]1O [Spectinomycin],scaled lipid accumulation score,library stock concentration: 6 mM,inactive: ≤ -0.006
CN[C@H](CC(=O)O)C(=O)O [N-methyl-d-aspartic acid (nmda)],scaled lipid accumulation score,[1],inactive: ≤ -0.027
CN[C@H](CC(=O)O)C(=O)O [N-Methyl-D-aspartic acid],scaled lipid accumulation score,[1],inactive: 0.04
NC(=O)c1cnc(N[C@@H]2CCCC[C@@H]2N)nc1Nc1cccc(-n2nccn2)c1,scaled lipid accumulation score,[4],inactive: ≤ 0
same,scaled lipid accumulation score,[5],inactive: 0.015
same,scaled lipid accumulation score,[6],inactive: 0.218
same,scaled lipid accumulation score,[2],inactive: 0.214
same,scaled lipid accumulation score,[1],inactive: 0.215 and inactive: 0.449
Cc1onc(-c2ccccc2Cl)c1C(=O)N[C@@H]1C(=O)N2[C@@H]1SC(C)(C)[C@@H]2C(=O)O [Cloxacillin sodium],scaled lipid accumulation score,[8],inactive: 0.008
same,scaled lipid accumulation score,[1],inactive: ≤ 0
Cc1onc(-c2ccccc2Cl)c1C(=O)N[C@@H]1C(=O)N2[C@@H]1SC(C)(C)[C@@H]2C(=O)O [Cloxacillin Sodium],scaled lipid accumulation score,[2],inactive: ≤ 0
same,scaled lipid accumulation score,[1],inactive: 0.009
Cc1onc(-c2ccccc2Cl)c1C(=O)N[C@@H]1C(=O)N2[C@@H]1SC(C)(C)[C@@H]2C(=O)O [Cloxacillin sodium salt],scaled lipid accumulation score,,inactive: 0.071
CN(CCO)CC(O)Cn1cnc2c1c(=O)n(C)c(=O)n2C (centres undefined),scaled lipid accumulation score,[1],inactive: ≤ 0
COc1ccc(Cn2ccc3ccc(C(=O)NO)cc32)cc1,scaled lipid accumulation score,[2],inactive: ≤ 0
same,scaled lipid accumulation score,[1],inactive: ≤ 0
CCCn1cc(-c2ccnc(NC3CCN(Cc4cccnc4)CC3)n2)c(C)n1,scaled lipid accumulation score,[1],active: 0.91
"Cn1c(=O)c2[nH]c(-c3ccccc3)nc2n(C)c1=O [1,3-Dimethyl-8-phenylxanthine]",scaled lipid accumulation score,[1],inactive: ≤ -0.055
COC(=O)C1=CO[C@@H](O[C@@H]2O[C@H](CO)[C@@H](O)[C@H](O)[C@H]2O)[C@@H]2C(CO)=CC[C@H]12 [Geniposide],scaled lipid accumulation score,[2],inactive: ≤ 0
same,scaled lipid accumulation score,[1],inactive: 0.125
CC(C)Nc1cccnc1N1CCN(C(=O)c2cc3cc(NS(C)(=O)=O)ccc3[nH]2)CC1 [Delavirdine mesylate],scaled lipid accumulation score,[8],inactive: ≤ -0.006
COc1cccc2c1C(=O)c1c(O)c3c(c(O)c1C2=O)C[C@@](O)(C(=O)CO)C[C@@H]3O[C@H]1C[C@H](N)[C@@H](O)[C@H](C)O1,scaled lipid accumulation score,[1],inactive: 0.36
COc1cccc2c1C(=O)c1c(O)c3c(c(O)c1C2=O)C[C@@](O)(C(=O)CO)C[C@@H]3O[C@H]1C[C@H](N)[C@@H](O)[C@H](C)O1 [Epirubicin HCl],scaled lipid accumulation score,[2],inactive: ≤ 0
same,scaled lipid accumulation score,[1],inactive: ≤ 0
C/C=C/c1ccc(OC)cc1 [Anethole],scaled lipid accumulation score,[1],inactive: 0.104
same,scaled lipid accumulation score,[9],inactive: ≤ 0
"C/C=C/c1ccc(OC)cc1 [Anethole, trans-]",scaled lipid accumulation score,[9],inactive: ≤ -0.006
CC(=O)O/N=C1/C(c2c(O)[nH]c3cc(Br)ccc23)=Nc2ccccc21 [GSK-3 Inhibitor X],scaled lipid accumulation score,[2],inactive: ≤ 0
C=C(C)[C@@H]1CC[C@]2(CO)CC[C@]3(C)[C@H](CC[C@@H]4[C@@]5(C)CC[C@H](O)C(C)(C)[C@@H]5CC[C@]43C)[C@@H]12 [Betulin],scaled lipid accumulation score,,inactive: ≤ 0
"CCCCC(C)(C)[C@H](O)/C=C/[C@@H]1[C@@H](C/C=C\CCCC(=O)O)[C@H](O)C[C@H]1O [16,16-dimethyl Prostaglandin F2.beta.]",scaled lipid accumulation score,[3],inactive: ≤ 0
N=C(N)c1ccc(N)cc1 [4-Aminobenzamidine dihydrochloride],scaled lipid accumulation score,[1],inactive: ≤ 0
CCCN(CCC)CCc1cccc2c1CC(=O)N2 [Ropinirole],scaled lipid accumulation score,library stock concentration: 7.7 mM,inactive: ≤ 0
CCCN(CCC)CCc1cccc2c1CC(=O)N2 [Ropinirole hydrochloride],scaled lipid accumulation score,[1],inactive: ≤ 0
CCCN(CCC)CCc1cccc2c1CC(=O)N2 [Ropinirole HCl],scaled lipid accumulation score,[2],inactive: 0.02
same,scaled lipid accumulation score,[1],inactive: ≤ 0
O=C(O)CCCCCCC1C(=O)N(Cc2ccccc2)C(=O)N1NCC(O)C1CCCCC1 (centres undefined),scaled lipid accumulation score,[3],inactive: ≤ 0
CC(=O)O[C@H]1C(=O)[C@@]2(C)[C@H]([C@H](OC(=O)c3ccccc3)[C@]3(O)C[C@H](OC(=O)[C@H](O)[C@@H](NC(=O)c4ccccc4)c4ccccc4)C(C)=C1C3(C)C)[C@]1(OC(C)=O)CO[C@@H]1C[C@@H]2O [Paclitaxel],scaled lipid accumulation score,,inactive: ≤ 0
same,scaled lipid accumulation score,[10],inactive: ≤ 0
same,scaled lipid accumulation score,[2],inactive: ≤ 0
same,scaled lipid accumulation score,[1],inactive: ≤ 0 and inactive: 0.124
CC(=O)O[C@H]1C(=O)[C@@]2(C)[C@H]([C@H](OC(=O)c3ccccc3)[C@]3(O)C[C@H](OC(=O)[C@H](O)[C@@H](NC(=O)c4ccccc4)c4ccccc4)C(C)=C1C3(C)C)[C@]1(OC(C)=O)CO[C@@H]1C[C@@H]2O [Taxol = Paclitaxel],scaled lipid accumulation score,library stock concentration: 5.8 mM,inactive: ≤ -0.012
CC(=O)O[C@H]1C(=O)[C@@]2(C)[C@H]([C@H](OC(=O)c3ccccc3)[C@]3(O)C[C@H](OC(=O)[C@H](O)[C@@H](NC(=O)c4ccccc4)c4ccccc4)C(C)=C1C3(C)C)[C@]1(OC(C)=O)CO[C@@H]1C[C@@H]2O [Taxol],scaled lipid accumulation score,[10],inactive: ≤ 0
same,scaled lipid accumulation score,[1],inactive: ≤ -0.006
